Source: patent publication US20220033784A1 (Pfizer, published 2022)
Read-outs that look alike come from different tables or passages of the source.

Columns and labels:
[1] = molecular target: T1, human IL-2 receptor beta (IL-2Rβ, CD122), purified soluble (human, UniProt P14784 27-240); assay: SPR (Biacore 8K, 25 C), CD122 amine-coupled on CM5 chip, Fc-IL2 as analyte, 1:1 Langmuir fit
T1 construct: also called hILR2β (CD122); human IL-2Rβ
T1 sequence (looked up): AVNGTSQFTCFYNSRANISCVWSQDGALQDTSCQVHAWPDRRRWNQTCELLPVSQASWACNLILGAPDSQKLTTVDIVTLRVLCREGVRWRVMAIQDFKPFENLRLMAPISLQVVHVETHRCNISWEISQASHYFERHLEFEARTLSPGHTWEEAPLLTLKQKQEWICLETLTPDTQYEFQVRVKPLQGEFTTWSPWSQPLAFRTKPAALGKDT

[2] = molecular target: T2, human intermediate-affinity IL-2 receptor complex, IL-2 CD122/CD132 (β/γ), on cells (human, UniProt P14784 27-551; P31785 23-369); assay: cell-based or functional assay
T2 sequence (looked up) 1: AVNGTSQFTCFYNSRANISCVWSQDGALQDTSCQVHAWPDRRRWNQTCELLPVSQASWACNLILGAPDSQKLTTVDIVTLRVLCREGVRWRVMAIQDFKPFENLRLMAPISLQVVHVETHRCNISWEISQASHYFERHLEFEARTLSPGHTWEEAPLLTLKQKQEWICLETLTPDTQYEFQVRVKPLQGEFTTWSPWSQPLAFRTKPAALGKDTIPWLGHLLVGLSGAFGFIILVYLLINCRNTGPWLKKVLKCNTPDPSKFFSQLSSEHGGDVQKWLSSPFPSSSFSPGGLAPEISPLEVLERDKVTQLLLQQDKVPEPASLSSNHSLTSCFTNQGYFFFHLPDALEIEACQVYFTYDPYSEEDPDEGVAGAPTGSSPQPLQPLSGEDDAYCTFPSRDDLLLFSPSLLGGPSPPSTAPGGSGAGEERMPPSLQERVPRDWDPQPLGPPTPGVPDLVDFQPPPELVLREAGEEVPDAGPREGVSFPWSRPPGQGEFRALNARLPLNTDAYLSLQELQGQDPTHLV
T2 sequence (looked up) 2: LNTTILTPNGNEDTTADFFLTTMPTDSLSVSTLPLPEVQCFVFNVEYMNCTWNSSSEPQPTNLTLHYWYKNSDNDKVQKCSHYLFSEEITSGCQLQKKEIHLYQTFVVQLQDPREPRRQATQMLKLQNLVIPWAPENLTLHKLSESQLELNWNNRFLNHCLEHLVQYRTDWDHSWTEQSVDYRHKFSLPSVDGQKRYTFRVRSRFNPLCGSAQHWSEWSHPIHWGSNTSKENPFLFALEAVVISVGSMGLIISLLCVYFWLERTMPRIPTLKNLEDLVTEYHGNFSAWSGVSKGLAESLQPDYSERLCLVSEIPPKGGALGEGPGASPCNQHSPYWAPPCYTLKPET

[3] = molecular target: T2, human intermediate-affinity IL-2 …; assay: cell-based or functional assay; remark: listed apart in the source
[4] = molecular target: T3, human high-affinity IL-2 receptor complex, IL-2 CD25/CD122/CD132 (α/β/γ), on cells (human, UniProt P01589 22-272; P14784 27-551; P31785 23-369); assay: cell-based or functional assay
T3 sequence (looked up) 1: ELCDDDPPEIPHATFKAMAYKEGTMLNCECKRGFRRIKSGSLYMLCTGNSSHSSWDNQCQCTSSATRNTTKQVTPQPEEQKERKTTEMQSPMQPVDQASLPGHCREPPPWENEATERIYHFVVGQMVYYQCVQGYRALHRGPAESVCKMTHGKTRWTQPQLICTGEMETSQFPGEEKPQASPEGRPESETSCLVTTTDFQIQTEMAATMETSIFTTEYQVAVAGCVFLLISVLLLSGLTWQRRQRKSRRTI
T3 sequence (looked up) 2: T2 sequence (looked up) 1
T3 sequence (looked up) 3: T2 sequence (looked up) 2

[5] = molecular target: T2, human intermediate-affinity IL-2 …; assay: cell-based or functional assay; remark: listed apart in the source
[6] = molecular target: T4, human IL-2 receptor alpha (IL-2Rα, CD25), purified soluble (human, UniProt P01589 22-240); assay: SPR (Biacore 8K, 25 C), CD25 amine-coupled on CM5 chip, Fc-IL2 as analyte, 1:1 Langmuir fit
T4 construct: also called hIL2Rα (CD25); human IL-2Rα
T4 sequence (looked up): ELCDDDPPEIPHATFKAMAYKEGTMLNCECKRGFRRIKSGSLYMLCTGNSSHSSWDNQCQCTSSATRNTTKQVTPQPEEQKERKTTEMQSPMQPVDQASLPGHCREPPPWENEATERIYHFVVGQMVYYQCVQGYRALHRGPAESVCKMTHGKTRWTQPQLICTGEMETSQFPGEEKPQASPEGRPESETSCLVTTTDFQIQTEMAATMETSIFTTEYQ

[7] = molecular target: T3, human high-affinity IL-2 receptor …; assay: cell-based or functional assay; remark: listed apart in the source
[8] = molecular target: T2, human intermediate-affinity IL-2 …; assay: cell-based or functional assay; remark: listed apart in the source

Kd [1]: 2120 nM | koff [1]: 0.279 s⁻¹ | kon [1]: 131000 M⁻¹ s⁻¹ | EC50 (read off the curve), pSTAT5 MFI in NK cells of hPBMC [2]: ~4 nM | EC50 (read off the curve), pSTAT5 MFI in NK cells of hPBMC [3]: ~4 nM | EC50, pSTAT5 induction in iTreg cells (ELISA) [4]: < 0.2 pM | EC50, pSTAT5 induction in HH T cells (ELISA) [5]: 16.9 nM | koff [6]: 0.0859 s⁻¹ | kon [6]: 2.27e+06 M⁻¹ s⁻¹ | EC50, pSTAT5 in Treg cells of hPBMCs (flow cytometry) [7]: 10 pM | EC50, pSTAT5 in CD8 T cells of hPBMCs (flow cytometry) [8]: 15.7 nM | EC50, pSTAT5 in NK cells of hPBMCs (flow cytometry) [8]: 2.52 nM
B1: Fc-IL2 (wild-type) (Fc fusion)
chain: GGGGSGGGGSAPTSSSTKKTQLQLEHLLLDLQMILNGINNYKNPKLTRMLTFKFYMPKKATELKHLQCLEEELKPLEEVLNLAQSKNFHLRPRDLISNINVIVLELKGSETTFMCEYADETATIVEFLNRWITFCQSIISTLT
